# According to the supplement of paper PMC8728848:
# This is one part of the list.
# Key:
# Assay in all cases: glycan array binding signal (z-score within array); higher = stronger binding
# Settings in all cases: glycan notation: IUPAC condensed, linker removed
# Fuc(a1-2)Gal = target: Fuc(a1-2)Gal
# Summary of the method: (§1)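 Glycan array data came from 3228 arrays in the Consortium for Functional Glycomics database, and only arrays with an available protein sequence were kept. Glycan names were put into IUPAC-condensed notation, and columns mapping to the same glycan were averaged. The binding signal is a within-array Z-score, averaged across arrays of one protein sequence run at different concentrations or buffers and across linkers. A negative Z-score can be read as non-binding.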
# Fuc(a1-2)Gal(b1-3)GalNAc = target: Fuc(a1-2)Gal(b1-3)GalNAc
# Summary of the method: as §1
# [1] = target: Fuc(a1-2)Gal(b1-3)GalNAc(b1-3)Gal
# Summary of the method: as §1
# [2] = target: Fuc(a1-2)Gal(b1-3)GalNAc(b1-3)Gal(a1-4)Gal(b1-4)Glc
# Summary of the method: as §1
# [3] = target: Fuc(a1-2)Gal(b1-3)GalNAc(b1-4)[Neu5Ac(a2-3)]Gal(b1-4)Glc
# Summary of the method: as §1
# Fuc(a1-2)Gal(b1-3)GlcNAc = target: Fuc(a1-2)Gal(b1-3)GlcNAc
# Summary of the method: as §1
# [4] = target: Fuc(a1-2)Gal(b1-3)GlcNAc(b1-3)Gal(b1-4)Glc
# Summary of the method: as §1
# [5] = target: Fuc(a1-2)Gal(b1-3)[Fuc(a1-4)]GlcNAc
# Summary of the method: as §1
# Fuc(a1-2)Gal(b1-4)Glc = target: Fuc(a1-2)Gal(b1-4)Glc
# Summary of the method: as §1
# Fuc(a1-2)Gal(b1-4)Glc6S = target: Fuc(a1-2)Gal(b1-4)Glc6S
# Summary of the method: as §1
# Fuc(a1-2)Gal(b1-4)GlcNAc = target: Fuc(a1-2)Gal(b1-4)GlcNAc
# Summary of the method: as §1
# [6] = target: Fuc(a1-2)Gal(b1-4)GlcNAc(b1-3)Gal(b1-4)GlcNAc
# Summary of the method: as §1
# [7] = target: Fuc(a1-2)Gal(b1-4)GlcNAc(b1-3)Gal(b1-4)GlcNAc(b1-3)Gal(b1-4)GlcNAc
# Summary of the method: as §1
# [8] = target: Fuc(a1-2)Gal(b1-4)GlcNAc6S
# Summary of the method: as §1
# [9] = target: Fuc(a1-2)Gal(b1-4)[Fuc(a1-3)]GlcNAc
# Summary of the method: as §1
# [10] = target: Fuc(a1-2)Gal(b1-4)[Fuc(a1-3)]GlcNAc(b1-3)Gal(b1-4)[Fuc(a1-3)]GlcNAc
# Summary of the method: as §1
# [11] = target: Fuc(a1-2)Gal(b1-4)[Fuc(a1-3)]GlcNAc(b1-3)Gal(b1-4)[Fuc(a1-3)]GlcNAc(b1-3)Gal(b1-4)[Fuc(a1-3)]GlcNAc
# Summary of the method: as §1
# Fuc(a1-2)Gal6S(b1-4)Glc = target: Fuc(a1-2)Gal6S(b1-4)Glc
# Summary of the method: as §1
# [12] = target: Fuc(a1-2)Gal6S(b1-4)Glc6S
# Summary of the method: as §1
# [13] = target: Fuc(a1-2)Gal6S(b1-4)GlcNAc
# Summary of the method: as §1
# Fuc(a1-2)GlcNAc = target: Fuc(a1-2)GlcNAc
# Summary of the method: as §1
# Fuc(a1-2)[Gal(a1-3)]Gal = target: Fuc(a1-2)[Gal(a1-3)]Gal
# Summary of the method: as §1
# [14] = target: Fuc(a1-2)[Gal(a1-3)]Gal(b1-3)GlcNAc
# Summary of the method: as §1
# [15] = target: Fuc(a1-2)[Gal(a1-3)]Gal(b1-4)Glc
# Summary of the method: as §1
# [16] = target: Fuc(a1-2)[Gal(a1-3)]Gal(b1-4)GlcNAc
# Summary of the method: as §1
# [17] = target: Fuc(a1-2)[Gal(a1-3)]Gal(b1-4)[Fuc(a1-3)]GlcNAc
# Summary of the method: as §1
# [18] = target: Fuc(a1-2)[Gal(a1-4)]Gal(b1-4)GlcNAc
# Summary of the method: as §1
# [19] = target: Fuc(a1-2)[GalNAc(a1-3)]Gal
# Summary of the method: as §1
# [20] = target: Fuc(a1-2)[GalNAc(a1-3)]Gal(b1-3)GlcNAc
# Summary of the method: as §1
# [21] = target: Fuc(a1-2)[GalNAc(a1-3)]Gal(b1-4)Glc
# Summary of the method: as §1
# [22] = target: Fuc(a1-2)[GalNAc(a1-3)]Gal(b1-4)GlcNAc
# Summary of the method: as §1
# [23] = target: Fuc(a1-2)[GalNAc(a1-3)]Gal(b1-4)[Fuc(a1-3)]GlcNAc
# Summary of the method: as §1
# [24] = target: Fuc(a1-2)[GalNAc(a1-4)]Gal(b1-4)GlcNAc
# Summary of the method: as §1
# [25] = target: Fuc(a1-2)[GalNAc(b1-3)]Gal
# Summary of the method: as §1
# Fuc(a1-3)GlcNAc = target: Fuc(a1-3)GlcNAc
# Summary of the method: as §1
# [26] = target: Fuc(a1-3)[Gal(b1-4)]Glc6S
# Summary of the method: as §1
# [27] = target: Fuc(a1-3)[Gal(b1-4)]GlcNAc
# Summary of the method: as §1
# [28] = target: Fuc(a1-3)[Gal(b1-4)]GlcNAc(b1-2)Man(a1-3)[Fuc(a1-3)[Gal(b1-4)]GlcNAc(b1-2)Man(a1-6)]Man(b1-4)GlcNAc(b1-4)GlcNAc
# Summary of the method: as §1
# [29] = target: Fuc(a1-3)[Gal(b1-4)]GlcNAc(b1-2)Man(a1-6)[Gal(b1-4)GlcNAc(b1-2)Man(a1-3)]Man(b1-4)GlcNAc(b1-4)GlcNAc
# Summary of the method: as §1
# [30] = target: Fuc(a1-3)[Gal(b1-4)]GlcNAc(b1-3)Gal(b1-3)[Fuc(a1-4)]GlcNAc
# Summary of the method: as §1
# [31] = target: Fuc(a1-3)[Gal(b1-4)]GlcNAc(b1-4)Gal(b1-4)[Fuc(a1-3)]GlcNAc
# Summary of the method: as §1
# [32] = target: Fuc(a1-3)[Gal(b1-4)]GlcNAc(b1-4)Gal(b1-4)[Fuc(a1-3)]GlcNAc(b1-4)Gal(b1-4)[Fuc(a1-3)]GlcNAc
# Summary of the method: as §1
# [33] = target: Fuc(a1-3)[Gal(b1-4)]GlcNAc6S
# Summary of the method: as §1
# [34] = target: Fuc(a1-3)[Gal3S(b1-4)]Glc6S
# Summary of the method: as §1
# [35] = target: Fuc(a1-3)[Gal3S(b1-4)]GlcNAc
# Summary of the method: as §1
# [36] = target: Fuc(a1-3)[Gal3S(b1-4)]GlcNAc6S
# Summary of the method: as §1
# [37] = target: Fuc(a1-3)[GalNAc(b1-4)]GlcNAc
# Summary of the method: as §1
# Fuc(a1-4)GlcNAc = target: Fuc(a1-4)GlcNAc
# Summary of the method: as §1
# Fuc(b1-3)GlcNAc = target: Fuc(b1-3)GlcNAc
# Summary of the method: as §1
# Gal(a1-2)Gal = target: Gal(a1-2)Gal
# Summary of the method: as §1
# Gal(a1-3)Gal = target: Gal(a1-3)Gal
# Summary of the method: as §1
# Gal(a1-3)Gal(b1-3)GlcNAc = target: Gal(a1-3)Gal(b1-3)GlcNAc
# Summary of the method: as §1
# Gal(a1-3)Gal(b1-4)Glc = target: Gal(a1-3)Gal(b1-4)Glc
# Summary of the method: as §1
# Gal(a1-3)Gal(b1-4)GlcNAc = target: Gal(a1-3)Gal(b1-4)GlcNAc
# Summary of the method: as §1
# [38] = target: Gal(a1-3)Gal(b1-4)[Fuc(a1-3)]GlcNAc
# Summary of the method: as §1
# Gal(a1-3)GalNAc = target: Gal(a1-3)GalNAc
# Summary of the method: as §1
# [39] = target: Gal(a1-3)[Gal(a1-4)]Gal(b1-4)GlcNAc
# Summary of the method: as §1
# Gal(a1-4)Gal(b1-4)Glc = target: Gal(a1-4)Gal(b1-4)Glc
# Summary of the method: as §1
# Gal(a1-4)Gal(b1-4)GlcNAc = target: Gal(a1-4)Gal(b1-4)GlcNAc
# Summary of the method: as §1
# Gal(a1-4)GlcNAc = target: Gal(a1-4)GlcNAc
# Summary of the method: as §1
binder,measurement,setting,value
"E-Selectin (Mus musculus), Q00690 (protein) MNASRFLSALVFVLLAGESTAWYYNASSELMTYDEASAYCQRDYTHLVAIQNKEEINYLNSNLKHSPSYYWIGIRKVNNVWIWVGTGKPLTEEAQNWAPGEPNNKQRNEDCVEIYIQRTKDSGMWNDERCNKKKLALCYTASCTNASCSGHGECIETINSYTCKCHPGFLGPNCEQAVTCKPQEHPDYGSLNCSHPFGPFSYNSSCSFGCKRGYLPSSMETTVRCTSSGEWSAPAPACHVVECEALTHPAHGIRKCSSNPGSYPWNTTCTFDCVEGYRRVGAQNLQCTSSGIWDNETPSCKAVTCDAIPQPQNGFVSCSHSTAGELAFKSSCNFTCEQSFTLQGPAQVECSAQGQWTPQIPVCKAVQCEALSAPQQGNMKCLPSASGPFQNGSSCEFSCEEGFELKGSRRLQCGPRGEWDSKKPTCSAVKCDDVPRPQNGVMECAHATTGEFTYKSSCAFQCNEGFSLHGSAQLECTSQGKWTQEVPSCQVVQCPSLDVPGKMNMSCSGTAVFGTVCEFTCPDDWTLNGSAVLTCGATGRWSGMPPTCEAPVSPTRPLVVALSAAGTSLLTSSSLLYLLMRYFRKKAKKFVPASSCQSLQSFENYHVPSYNV",glycan array binding signal (z-score),Fuc(a1-2)Gal,-0.286
same,glycan array binding signal (z-score),Fuc(a1-2)Gal(b1-3)GalNAc,-0.324
same,glycan array binding signal (z-score),[1],-0.298
same,glycan array binding signal (z-score),[2],-0.186
same,glycan array binding signal (z-score),[3],-0.301
same,glycan array binding signal (z-score),Fuc(a1-2)Gal(b1-3)GlcNAc,-0.312
same,glycan array binding signal (z-score),[4],-0.289
same,glycan array binding signal (z-score),[5],1.34
same,glycan array binding signal (z-score),Fuc(a1-2)Gal(b1-4)Glc,-0.252
same,glycan array binding signal (z-score),Fuc(a1-2)Gal(b1-4)Glc6S,-0.186
same,glycan array binding signal (z-score),Fuc(a1-2)Gal(b1-4)GlcNAc,-0.339
same,glycan array binding signal (z-score),[6],-0.345
same,glycan array binding signal (z-score),[7],-0.255
same,glycan array binding signal (z-score),[8],-0.158
same,glycan array binding signal (z-score),[9],1.22
same,glycan array binding signal (z-score),[10],0.625
same,glycan array binding signal (z-score),[11],0.391
same,glycan array binding signal (z-score),Fuc(a1-2)Gal6S(b1-4)Glc,-0.22
same,glycan array binding signal (z-score),[12],-0.213
same,glycan array binding signal (z-score),[13],-0.273
same,glycan array binding signal (z-score),Fuc(a1-2)GlcNAc,-0.342
same,glycan array binding signal (z-score),Fuc(a1-2)[Gal(a1-3)]Gal,-0.265
same,glycan array binding signal (z-score),[14],-0.355
same,glycan array binding signal (z-score),[15],-0.336
same,glycan array binding signal (z-score),[16],-0.317
same,glycan array binding signal (z-score),[17],-0.324
same,glycan array binding signal (z-score),[18],-0.29
same,glycan array binding signal (z-score),[19],-0.217
same,glycan array binding signal (z-score),[20],-0.359
same,glycan array binding signal (z-score),[21],-0.349
same,glycan array binding signal (z-score),[22],-0.345
same,glycan array binding signal (z-score),[23],-0.142
same,glycan array binding signal (z-score),[24],-0.301
same,glycan array binding signal (z-score),[25],-0.306
same,glycan array binding signal (z-score),Fuc(a1-3)GlcNAc,-0.259
same,glycan array binding signal (z-score),[26],1.71
same,glycan array binding signal (z-score),[27],0.986
same,glycan array binding signal (z-score),[28],0.554
same,glycan array binding signal (z-score),[29],0.7
same,glycan array binding signal (z-score),[30],0.718
same,glycan array binding signal (z-score),[31],0.598
same,glycan array binding signal (z-score),[32],0.61
same,glycan array binding signal (z-score),[33],0.444
same,glycan array binding signal (z-score),[34],5.1
same,glycan array binding signal (z-score),[35],1.91
same,glycan array binding signal (z-score),[36],2.52
same,glycan array binding signal (z-score),[37],0.563
same,glycan array binding signal (z-score),Fuc(a1-4)GlcNAc,-0.361
same,glycan array binding signal (z-score),Fuc(b1-3)GlcNAc,-0.373
same,glycan array binding signal (z-score),Gal(a1-2)Gal,-0.326
same,glycan array binding signal (z-score),Gal(a1-3)Gal,-0.229
same,glycan array binding signal (z-score),Gal(a1-3)Gal(b1-3)GlcNAc,-0.371
same,glycan array binding signal (z-score),Gal(a1-3)Gal(b1-4)Glc,-0.33
same,glycan array binding signal (z-score),Gal(a1-3)Gal(b1-4)GlcNAc,-0.309
same,glycan array binding signal (z-score),[38],-0.34
same,glycan array binding signal (z-score),Gal(a1-3)GalNAc,-0.302
same,glycan array binding signal (z-score),[39],-0.315
same,glycan array binding signal (z-score),Gal(a1-4)Gal(b1-4)Glc,-0.295
same,glycan array binding signal (z-score),Gal(a1-4)Gal(b1-4)GlcNAc,-0.318
same,glycan array binding signal (z-score),Gal(a1-4)GlcNAc,-0.337
